Measured values taken from the RNAGym collection of RNA variant scans (doi:10.1073/pnas.2313332121).
This sample is rich in variants without activity.

B1: TPR 5TU (parent)
chain: GGAUCUUCUCGAUCUAACAAAAAAGACAAAUCUGCCACAAAGCUUGAGAGCAUCUUCGGAUGCAGAGGCGGCAGCCUUCGGUGGCGCGAUAGCGCCAACGUUCUCAACUAUGACACGCAAAACGCGUGCUCCGUUGAAUGGAGUUUAUCAUG

Variants of: B1
Assay: polymerase ribozyme fitness, log enrichment relative to wild type (log ratio); higher = more active; in vitro selection for triplet polymerase activity
How it was run: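 Libraries of mutants in each subunit of a heterodimeric triplet polymerase ribozyme were generated by PCR and transcribed. In triplicate, each went through one in vitro selection round: annealing with biotinylated primer, partner subunit and triplets; frozen incubation at −7 °C; gel excision of extended constructs; streptavidin-bead capture; RT-PCR. Fitness, taken from Illumina sequencing of input and output libraries, is the logarithm of a genotype's enrichment over wild-type enrichment, averaged across replicates with inverse-variance weights. The logarithm is base 2, and genotypes needed ≥10 input reads and ≥1 read per output to be kept.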

Variant | polymerase ribozyme fitness (log ratio)
A28U G50C C76U C85U C103A C118U U144G | ≤ -4.2
A28U G58A G83C A97G C105A G143U | ≤ -4.2
A28U G58C A64C G94U A98U C116U G117U C129U A137U | ≤ -4.2
A28U G58C G88A G94A | ≤ -4.2
A28U G58U C103G C116A A137C | ≤ -4.2
A28U G67A G80U | ≤ -4.2
A28U G67U C85A C118U A122C G128U | ≤ -4.2
A28U G74A C93A C125G A137C | ≤ -4.2
A28U G92A G140C | -3.61
A28U G133A A142G | ≤ -4.2
A28U U33A U61A U77C A89U C96A A106G U127C U139A G141U C149A | ≤ -4.2
A28U U44G U82G C87U C114U G133A U146G | ≤ -4.2
A28U U45A U61G G74U A106U A110U G140U | ≤ -4.2
A28U U53A | ≤ -4.2
A28U U53A A73G A110C | ≤ -4.2
A28U U55A A97G | ≤ -4.2
A28U U55G | ≤ -4.2
A28U U55G A89G A121U | ≤ -4.2
A28U U56A A91U C96G A107G C118A U146G | ≤ -4.2
A28U U56A G84A G86A C87A C108A A110U U145C | ≤ -4.2
A28U U77G G94U G136U U139C | ≤ -4.2

Variant | polymerase ribozyme fitness (log ratio)
A28U U90G C99U G141U U151G | ≤ -4.2
A28U U104G | ≤ -4.2
A28U U139G | ≤ -4.2
A29C | -3.73
A29C A30C G65A C93U G136A | ≤ -4.2
A29C A30G A40C G141A | ≤ -4.2
A29C A37C G92C C99U | ≤ -4.2
A29C A37U G42C U56G G84A | ≤ -4.2
A29C A37U G68C | ≤ -4.2
A29C A40G G42C G58A C87U | ≤ -4.2
A29C A40G G46A A47U C57U G59A C95A | ≤ -4.2
A29C A49C G50A C87G U102G G117A U127G | ≤ -4.2
A29C A49G C87A A150G | ≤ -4.2
A29C A52C C95U U111A G133U U144A | ≤ -4.2
A29C A73U C79U C93U A106G | ≤ -4.2
A29C A98G C116A | ≤ -4.2
A29C C32G G48C G84U C96G A97U | ≤ -4.2
A29C C35A U56A C93A | ≤ -4.2
A29C C36U A47C C57G G67C C108G A138G | ≤ -4.2
A29C C36U G88U A106U G124C G128A A138C | ≤ -4.2
A29C C38U G42U G81A G86A | ≤ -4.2

Variant | polymerase ribozyme fitness (log ratio)
A29C C38U U44G C57A A107U A110G | ≤ -4.2
A29C C51A C87G | ≤ -4.2
A29C C51G C57G G92C A107C A110C G124A U145A U151G | ≤ -4.2
A29C C54A C57U G74U C95A C105G U135A | ≤ -4.2
A29C C54A G70U | ≤ -4.2
A29C C54A G83A C95U G100C C125U | ≤ -4.2
A29C C54A U55G G88A G92U G124U | ≤ -4.2
A29C C57A C93U | ≤ -4.2
A29C C57G C75U C93A C114G A120G G141U | ≤ -4.2
A29C C69U G92A A97C U104G A107U U151G | ≤ -4.2
A29C G42C C72U C76A G86U C93G G136U | ≤ -4.2
A29C G50U C79G G128A U144A | ≤ -4.2
A29C G50U G81A C95A G133U | ≤ -4.2
A29C G58A C87G C93G G133A U145C | ≤ -4.2
A29C G58U | -4.16
A29C G59A G94U U102A A106G G141A | ≤ -4.2
A29C G59C U61G U77G U82C G86A | ≤ -4.2
A29C G71U G83C | ≤ -4.2
A29C G84A U127C G128A C132G U148C C149A | ≤ -4.2
A29C G94A A110U G124A A147U | ≤ -4.2
A29C U31A A41G C57A C96U U102C G143A | ≤ -4.2

Variant | polymerase ribozyme fitness (log ratio)
A29C U56A G58A G59A A73U G126C | ≤ -4.2
A29C U90A U145A U148C | ≤ -4.2
A29C U90C | ≤ -4.2
A29G | -1.81
A29G A41G U56A C93U U145A | ≤ -4.2
A29G A47C C57U C95G C96G C99A | ≤ -4.2
A29G A47C G70A C85G A89U A138C A142U | ≤ -4.2
A29G A52C G92U A107G G143C U148G | ≤ -4.2
A29G A52U G86C A121G | ≤ -4.2
A29G C32A C36U C85U C105A A113U G126U | ≤ -4.2
A29G C32G G94A U101G | ≤ -4.2
A29G C35G G84C G100A | ≤ -4.2
A29G C35U A60U G74U A106G A122G G124A | ≤ -4.2
A29G C51G A73G C85G | ≤ -4.2
A29G C57U G74A G94C C95A G126A | ≤ -4.2
A29G C57U G84A U104C G128U | ≤ -4.2
A29G C76U G92A G126U A142U U144G | ≤ -4.2
A29G C79A G112C U130G | ≤ -4.2
A29G C93G A121U A138C | ≤ -4.2
A29G C93U G143U | ≤ -4.2
A29G C131U | ≤ -4.2
